Data from US4876248A, “Anti-inflammatory products derived from methylene-diphosphonic acid, and process for their preparation” (priority 1982, dated 1989).
Where a name gives a salt, the structure may show the parent alone.

Tested on: secretion of neutral proteinases by stimulated chondrocytes
Test: Inhibition of secretion of neutral proteinases by stimulated chondrocytes in culture (in vitro study)
Conditions: 3 days' culture with 20% of medium containing chondrocyte stimulating factor; concentration which avoids cytotoxicity or insolubility
Experimental: The in vitro study is based on the fact that chondrocytes in a culture secrete neutral proteinases after stimulation by a factor synthesized by peritoneal macrophages or by the mononuclear cells of the blood.
The following procedure was used.
The chondrocytes are isolated from cartilage from the nasal septum of the calf or from articular cartilage of the rabbit, by enzymatic digestion, and are cultured in DMEN medium containing 10% of calf serum, to a density of 5×10^15 cells per 10 cm Petri dish. The culture medium is renewed every 48 hours.
After one week's culture, the cells are sub-cultured by treatment with trypsin EDTA. The cells are then again cultured in DMEM medium containing 10% of fetal calf serum to a density of 2×10^5 cells per 16 mm dish. Confluence occurs after 3 days' culture.
The peritoneal macrophages of the rabbit are abtained by the method described by DESHMUKH-PHADKE et al., Biochemical Biophysical Research Communication, 85, 490-6, (1978).
The mononuclear cells of human blood are prepared and cultured in accordance with the procedure of DAYER et al. [The Journal of Immunology, 124, 1712-1720 (1980)].
After culture, the medium containing the "chondrocyte stimulating factor" is recovered, filtered on an 0.22 μ Millipore filter and frozen at -20° C.
At the time of confluence, the culture medium of the chondrocytes is replaced by DMEM medium containing 1% of fetal calf serum, mixed with 20% of medium containing the chondrocyte stimulating factor.
The products to be tested are introduced into the culture medium at the same time as the stimulation medium; at a concentration which avoids cytotoxicity of the product or insolubility of the product. After 3 days' culture, the medium is recovered in order to determine its content of neutral proteinases.
The procedure of VAES et al. Biochemical Journal, 172, 261, (1978) is used.
They are expressed as a percentage inhibition of the secretion of neutral proteinases by stimulated chondrocytes treated with the products to be studied, relative to that of stimulated chondrocytes not treated with the products.

| Compound | Chondrocyte in culture % inhibition (inhibition of the secretion of neutral proteinases by stimulated chondrocytes relative to stimulated untreated chondrocytes) [%] |
| --- | --- |
| CSC(P(=O)(O)O)P(=O)(O)O [SR 41 036, Tri-(tertiary butylamine) salt of methylthio-methylene-diphosphonic acid] | 72 ± 8 |
| CC(C)SC(P(=O)(O)O)P(=O)(O)O [SR 41 100] | 20 ± 1 |
| CSCCCC(P(=O)(O)O)P(=O)(O)O [SR 41 177, Tertiary-butylammonium 4-(methylthio)-butylidene-1,1-diphosphonate] | 69 ± 4 |
| O=P(O)(O)C(Sc1ccccn1)P(=O)(O)O [SR 41 179] | 75 ± 7 |
| O=P(O)(O)C(Sc1nc2ccccc2[nH]1)P(=O)(O)O [SR 41 263] | 90 ± 1 |
| O=P(O)(O)C(Sc1ncccn1)P(=O)(O)O [SR 41 264] | 50 ± 10 |
| NCCSC(P(=O)(O)O)P(=O)(O)O [SR 41 266] | 68 ± 8 |
| O=P(O)(O)C(Sc1ccc(Cl)cc1)P(=O)(O)O [SR 41 319, Di-(tertiarybutylamine) salt of (4-chlorophenyl)thiomethylene-diphosphonicacid] | 85 ± 1 |
| O=P(O)(O)C(CCCSc1ccccc1)P(=O)(O)O [SR 41 342, Di-(tertiarybutylamine salt) of 4-phenylthio-butylidene-1,1-diphosphonic acid] | 99 ± 1 |
| CN(C)CCSC(P(=O)(O)O)P(=O)(O)O [SR 41 344] | 31 ± 6 |
| Nc1ccccc1SC(P(=O)(O)O)P(=O)(O)O [SR 41 388] | 90 ± 1 |
| CCCCCCCCSC(P(=O)(O)O)P(=O)(O)O [SR 41 421] | 97 ± 2 |
| CCCCCCCCCCCCCCCCSC(P(=O)(O)O)P(=O)(O)O [SR 41 453, Monoammonium hexadecylthiomethylene-diphosphonate] | 40 ± 2 |
| Cc1ccc(SC(P(=O)(O)O)P(=O)(O)O)cc1 [SR 41 456] | 98 ± 2 |
| CCCCCCCCCCSC(P(=O)(O)O)P(=O)(O)O [SR 41 457, decylthiomethylene-diphosphonic acid] | 95 ± 3 |
| O=P(O)(O)C(Sc1nc2cc(Cl)ccc2[nH]1)P(=O)(O)O [SR 41 480] | 56 ± 9 |
| O=P(O)(O)C(Sc1nc2ccccc2s1)P(=O)(O)O [SR 41 481, Tri-(tertiarybutylamine) salt of benzothiazol-2-yl-thiomethylene-diphosphonic acid] | 74 ± 9 |
| O=P(O)(O)C(Sc1ccccc1)P(=O)(O)O [SR 41 482] | 83 ± 6 |
| O=P(O)(O)C(CCCCS)P(=O)(O)O [SR 41 527, Di-(tertiarybutylalmine) salt of 5-mercapto-pentylidene-1,1-diphosphonic acid] | 54 ± 3 |
| O=P(O)(O)C(Sc1cccs1)P(=O)(O)O [SR 41 549, thien-2-yl-thiomethylene-diphosphonic acid] | 58 ± 4 |
| COP(=O)(OC)C(Sc1nc2ccccc2o1)P(=O)(OC)OC [SR 41 625, Tetramethyl benzoxazol-2-yl-thiomethylene-diphosphonate] | 92 ± 0 |
| O=P(O)(O)C(Sc1ccccc1Cl)P(=O)(O)O [SR 41 689] | 90 ± 3 |
| O=P(O)(O)C(SCCCc1ccccc1)P(=O)(O)O [SR 41 908] | 82 ± 2 |
| O=P(O)(O)C(CCCCCCSc1ccc(Cl)cc1)P(=O)(O)O [SR 41 959] | 79 ± 2 |
| CCN(CC)C(=S)SC(P(=O)(O)O)P(=O)(O)O [SR 41 960] | 55 ± 4 |
| O=P(O)(O)C(CCCCSc1ccccn1)P(=O)(O)O [SR 42 099, 5-(pyrid-2-yl-thio)-pentylidene-1,1-diphosphonic acid] | 50 ± 5 |
| O=P(O)(O)C(Sc1cccc(C(F)(F)F)c1)P(=O)(O)O [SR 42 249] | 92 ± 4 |
